Publication PMC9316867
No constants are given. Whether binding was seen depends on the method and setting. Binding seen in cells or lysates may run through a third protein. Some results given as binding are weak or reduced against the parent protein; the word gives no strength. Sequences can lack the tags named with a protein. One block for each binder: values may come before it.

Experiments:
[1] = molecular target: T1, VN-tagged Bik1 (S. cerevisiae) (UniProt P11709); test: split reporter; BiFC in living wild-type (W303a bar1) yeast cells co-expressing a VN-tagged and a VC-tagged protein from the chromosomal loci; Zeiss LSM880 confocal microscope, 100x oil objective
T1 sequence: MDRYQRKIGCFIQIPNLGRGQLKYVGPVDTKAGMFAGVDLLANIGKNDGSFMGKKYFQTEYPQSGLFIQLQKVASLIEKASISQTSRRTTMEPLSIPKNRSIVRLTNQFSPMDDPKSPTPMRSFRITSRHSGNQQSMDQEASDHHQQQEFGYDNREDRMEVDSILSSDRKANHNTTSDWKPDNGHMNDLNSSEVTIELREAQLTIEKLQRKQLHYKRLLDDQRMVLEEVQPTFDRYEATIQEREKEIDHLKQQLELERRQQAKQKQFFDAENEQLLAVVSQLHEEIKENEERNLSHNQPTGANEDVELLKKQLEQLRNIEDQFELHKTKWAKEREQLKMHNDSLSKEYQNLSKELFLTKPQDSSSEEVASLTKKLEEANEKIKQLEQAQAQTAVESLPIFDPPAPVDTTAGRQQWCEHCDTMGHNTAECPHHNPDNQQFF

[2] = molecular target: T2, HA-tagged Bim1 (S. cerevisiae) (UniProt P40013); test: co-IP; HA-tagged Bim1 precipitated from total yeast lysates (5 mg) with anti-HA antibody and protein A agarose, 4 °C; lysis buffer 50 mM Tris-HCl pH 7.5, 150 mM NaCl, 1% Nonidet P-40; Myc-tagged Kar9 or Kip2 detected by anti-MYC blot; Δbfa1 cells overexpressing Bfa1 (GAL promoter) or with the vector control
T2 sequence: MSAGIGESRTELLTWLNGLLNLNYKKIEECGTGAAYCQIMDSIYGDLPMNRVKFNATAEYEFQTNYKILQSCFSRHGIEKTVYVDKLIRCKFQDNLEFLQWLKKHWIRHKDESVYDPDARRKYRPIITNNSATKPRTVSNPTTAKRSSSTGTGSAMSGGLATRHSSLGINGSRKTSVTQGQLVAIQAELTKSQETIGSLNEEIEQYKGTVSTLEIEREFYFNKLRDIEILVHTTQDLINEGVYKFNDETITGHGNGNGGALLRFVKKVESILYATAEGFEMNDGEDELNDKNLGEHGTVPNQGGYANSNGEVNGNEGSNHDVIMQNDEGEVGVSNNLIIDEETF

[3] = molecular target: T3, VC-tagged Bim1 (S. cerevisiae) (UniProt P40013); test: split reporter; BiFC in living wild-type (W303a bar1) yeast cells co-expressing a VN-tagged and a VC-tagged protein from the chromosomal loci; Zeiss LSM880 confocal microscope, 100x oil objective
T3 sequence: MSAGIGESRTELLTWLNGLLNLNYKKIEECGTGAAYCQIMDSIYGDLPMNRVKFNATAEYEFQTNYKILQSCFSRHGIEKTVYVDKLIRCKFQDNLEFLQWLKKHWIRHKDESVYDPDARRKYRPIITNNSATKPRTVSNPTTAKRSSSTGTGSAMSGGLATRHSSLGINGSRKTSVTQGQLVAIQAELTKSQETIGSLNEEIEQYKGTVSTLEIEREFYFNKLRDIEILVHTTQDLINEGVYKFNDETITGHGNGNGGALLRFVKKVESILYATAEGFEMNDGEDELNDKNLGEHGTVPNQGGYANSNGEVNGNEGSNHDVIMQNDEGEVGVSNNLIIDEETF

[4] = molecular target: T3, VC-tagged Bim1 (S. cerevisiae); test: split reporter; BiFC in living Δbub2 yeast cells (YSK3361) co-expressing VN-tagged Bfa1 and VC-tagged Bim1; Zeiss LSM880 confocal microscope, 100x oil objective

B2: Myc-tagged Kip2 (protein, UniProt P28743 1-706)
chain: MIQKMSPSLRRPSTRSSSGSSNIPQSPSVRSTSSFSNLTRNSIRSTSNSGSQSISASSTRSNSPLRSVSAKSDPFLHPGRIRIRRSDSINNNSRKNDTYTGSITVTIRPKPRSVGTSRDHVGLKSPRYSQPRSNSHHGSNTFVRDPWFITNDKTIVHEEIGEFKFDHVFASHCTNLEVYERTSKPMIDKLLMGFNATIFAYGMTGSGKTFTMSGNEQELGLIPLSVSYLFTNIMEQSMNGDKKFDVIISYLEIYNERIYDLLESGLEESGSRISTPSRLYMSKSNSNGLGVELKIRDDSQYGVKVIGLTERRCESSEELLRWIAVGDKSRKIGETDYNARSSRSHAIVLIRLTSTNVKNGTSRSSTLSLCDLAGSERATGQQERRKEGSFINKSLLALGTVISKLSADKMNSVGSNIPSPSASGSSSSSGNATNNGTSPSNHIPYRDSKLTRLLQPALSGDSIVTTICTVDTRNDAAAETMNTLRFASRAKNVALHVSKKSIISNGNNDGDKDRTIELLRRQLEEQRRMISELKNRSNIGEPLTKSSNESTYKDIKATGNDGDPNLALMRAENRVLKYKLENCEKLLDKDVVDLQDSEIMEIVEMLPFEVGTLLETKFQGLESQIRQYRKYTQKLEDKIMALEKSGHTAMSLTGCDGTEVIELQKMLERKDKMIEALQSAKRLRDRALKPLINTQQSPHPVVDNDK
binding [2]: binds

B4: Myc-tagged Kar9 (protein, UniProt P32526 1-644)
chain: MDNDGPRSMTIGDDFQENFCERLERIHNTLHSINDCNSLNESTTSISETLLVQFYDDLENVASVIPDLVNKKRLGKDDILLFMDWLLLKKYMLYQFISDVHNIEEGFAHLLDLLEDEFSKDDQDSDKYNRFSPMFDVIEESTQIKTQLEPWLTNLKELLDTSLEFNEISKDHMDTLHKIINSNISYCLEIQEERFASPIRHTPSFTLEQLVKLLGTHTETTEPKVPKFSPAEDILSRKFLNLKKNIPPIEKSLTDILPQRIVQFGHRNITNITTLQTILQKKYELIMKDYRFMNSEFRELKVELIDKRWNILFINLNHELLYILDEIERLQSKLLTTKYTKDITIRLERQLERKSKTVSKTFNIIYRALEFSLLDAGVASKTNELAQRWLNIKPTADKILIKSSASNKIATSKKKIPKPKSLGFGRPNSVIGTITQDFQERVAINEGDSNKTPENSTTVALKGKKLGKALLQKMNIKPATSPNSSNAINPFFDPESPNKGKLILSSVPPLPYDETDETTLRVSRGENEKSPDSFITSRHENKVQITETPLMAKNKSVLDIEKDKWNHYRSLPSRIPIYKDKVVKVTVENTPIAKVFQTPPTKITTPNSQVWVPSTRRRTRLRPPTPLSQLLSPREGRLDKTPTY
binding [2]: binds

Continued, values first:

binding [1]: binds
B1: VC-tagged Kip2 (protein, UniProt P28743 1-706)
chain: MIQKMSPSLRRPSTRSSSGSSNIPQSPSVRSTSSFSNLTRNSIRSTSNSGSQSISASSTRSNSPLRSVSAKSDPFLHPGRIRIRRSDSINNNSRKNDTYTGSITVTIRPKPRSVGTSRDHVGLKSPRYSQPRSNSHHGSNTFVRDPWFITNDKTIVHEEIGEFKFDHVFASHCTNLEVYERTSKPMIDKLLMGFNATIFAYGMTGSGKTFTMSGNEQELGLIPLSVSYLFTNIMEQSMNGDKKFDVIISYLEIYNERIYDLLESGLEESGSRISTPSRLYMSKSNSNGLGVELKIRDDSQYGVKVIGLTERRCESSEELLRWIAVGDKSRKIGETDYNARSSRSHAIVLIRLTSTNVKNGTSRSSTLSLCDLAGSERATGQQERRKEGSFINKSLLALGTVISKLSADKMNSVGSNIPSPSASGSSSSSGNATNNGTSPSNHIPYRDSKLTRLLQPALSGDSIVTTICTVDTRNDAAAETMNTLRFASRAKNVALHVSKKSIISNGNNDGDKDRTIELLRRQLEEQRRMISELKNRSNIGEPLTKSSNESTYKDIKATGNDGDPNLALMRAENRVLKYKLENCEKLLDKDVVDLQDSEIMEIVEMLPFEVGTLLETKFQGLESQIRQYRKYTQKLEDKIMALEKSGHTAMSLTGCDGTEVIELQKMLERKDKMIEALQSAKRLRDRALKPLINTQQSPHPVVDNDK

binding [3]: binds
binding [4]: no binding (condition: in Δbub2 cells)
B3: VN-tagged Bfa1 (protein, UniProt P47113 1-574)
chain: MSIRPLTLNGLDEPETSFEELNTTLPRFQSHETLTLEENVPPLSTSTYIPPPSSVGTSDTGTVFSNSTSAFWSNKQADDDQDMEVDQDDEFLNDFQEFQNKKDDFDDAIKTNFHLRNGCRTGPFKNDIFAEEFDRKLSLEDKPRLKQPRSMMELKPKRKLSNSVTSRNLRSGNSVRFKKSMPNLALVNPAIREEEEDEEREREDQREFNYKIDNDTQDTILAKFSSDDEGDFLTGFEELEGEAIDETISSNDKESADHPRFLKKSSSSLPLKISPAQYDIVKHDELLTPGLHRRQRDWNTQQELDSFKEKRSVRHCSNQNVQLNGPAKIKTIKQQIDHNTPMKKGSMIYNPKTMKWEGNENVLSKFSDVDTANRKALLIKNKLQRDADSKKQKYSDLQHARATSRNQKVIGNMILDEQNLRWVSVSEEEADPFAGIPEINLPPVGKSMKKRSSSPFLRSKSQVNTPFVSNDNDGVYQSTAAQARLRKYHSMRTLNGTTETPEISSTFHLSSRALEKFYHEENRWCKKLASWFIPRDETIISVDEETIMDESTVNSKRKSYMYEIRNMVINSTKD
